In PubChem BioAssay AID686979 (National Center for Advancing Translational Sciences (NCATS), 2013):
“And” between values parts separate entries of the source, which are not always exact repeats. Equal values may be shown once. Out of some 420,000 compounds screened, about 50,000 (12%) were called active. The inconclusive results got no clear call from the source; some entries with a clear call stand among them for comparison. Calls follow the shape of the dose curve; as a rule, active = well fitted inhibition curve with a large enough effect; inconclusive = small, poorly fitted or top-dose-only effect; inactive = flat fitted curve, though single readings scatter. Where the call is inconclusive, the potency comes from a doubtful curve fit. Where a SMILES comes first, the peptide text is derived from it. [ ]: non-standard residue; d: D form. The star is where a group is joined. ξ: configuration not given here. ξNMe2Val = CC(C)C(C(=O)*)N(C)C; NMeV = CN[CH](C(=O)O)C(C)C; NHBn = c1ccc(CN*)cc1
% is scaled to controls: 0 for no effect and ±100 for the full control effect; potency is read from the fitted curve at half-maximal effect; tags tell the direction and shape of the fitted curve.

Test: qHTS for Inhibitors of human tyrosyl-DNA phosphodiesterase 1 (TDP1): qHTS in cells in presence of CPT; also: nearly all actives have a fitted effect of over 55% in size
Settings: chicken DT40 Tdp1-/-;hTDP1 cells + 20 nM CPT, ATP luminescence, 48 h; activity change, negative = growth inhibition: at 46.2 µM (top of the series) unless noted
In short: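 Chicken DT40 Tdp1-/- cells complemented with human TDP1, 400 cells/well, exposed to compounds plus 20 nM camptothecin for at least 48 h at 37 C; viability read as ATP content by CellTiter-Glo luminescence.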
With Clc1cccc(CNCCc2c[nH]c3ccccc23)c1 the Potency was inconclusive: 29.1 µM [inhibitor, single point]. In the case of CC1(C)CC(=O)C2=C(C1)NC(=O)C21C(C(=O)OC(C)(C)C)=C(N)Oc2ccc(Br)cc21 (stereo unspecified), the Potency is reported as inconclusive: 25.9 µM [inhibitor, single point]. With O=c1cccc2n1CC1CC2CN(S(=O)(=O)c2cc(Cl)ccc2Cl)C1 (stereo unspecified) the Potency was “inactive”. In the case of CC1OC(OC2C=C3CCC4C(CCC5(C)C(c6ccc(=O)oc6)CCC45O)C3(C)CC2)C(O)C(OC2OC(CO)C(O)C(O)C2O)C1O (stereo unspecified), the Potency is reported as active: 0.164 µM. With COc1ccc(C#Cc2ccc3c(c2)O[C@H](CN(C)S(=O)(=O)c2ccccc2F)[C@H](C)CN([C@H](C)CO)S3(=O)=O)cc1 the Potency was inconclusive: 23.1 µM [inhibitor, single point]. In the case of CCOc1cc2c(cc1OCC)-n1cccc1C(c1cc(C)c(OC)cc1C)NC2 (stereo unspecified), the Potency is reported as active: 10.3 µM. In the case of Cc1ccsc1C(=O)C1CCCN(Cc2cc3ccccc3o2)C1 (stereo unspecified), the Potency is reported as inconclusive: 29.1 µM [inhibitor, single point]. With CC[n+]1c(SC)ccc2cc(OC)ccc21 the Potency was inconclusive: 18.4 µM [inhibitor, partial curve]. For CC1=C(O)C(=O)C=C2C1=CC=C1C2(C)CCC2(C)C3CC(C)(C(=O)O)CCC3(C)CCC12C (stereo unspecified), the Potency was active: 1.3 µM. With CN(C)C1C(=O)C(C(N)=O)=C(O)[C@@]2(O)C(=O)C3=C(O)c4c(O)cccc4[C@@](C)(O)C3C[C@@H]12 (stereo partly specified) the Potency was active: 21.1 µM. In the case of CC(=O)[C@@]1(O)CC[C@H]2[C@@H]3C[C@H](C)C4=CC(=O)CC[C@]4(C)[C@H]3CC[C@@]21C, the Potency is reported as inconclusive: 13 µM [inhibitor, partial curve, poor fit]. For COC(=O)CC1(CC(=O)OC)C(=O)N(c2ccccc2)C(=O)N(c2ccccc2)C1=O, the Potency was “inactive”. For Cc1nn(Cc2ccccc2)c(Cl)c1C(=O)OC(C)C(=O)Nc1ccc(F)cc1Cl (stereo unspecified), the Potency was inconclusive: 29.1 µM [inhibitor, single point]. For COc1ccc(C2=NCC(=S)Nc3ccc(Cl)cc32)cc1Cl, the Potency was inconclusive: 29.1 µM [inhibitor, single point]. With COCCCn1c(N)c(C(=O)Nc2ccccc2)c2nc3ccccc3nc21 the Potency was active: 29.1 µM. With c1csc(CN2CCC3(CCNCC3)CC2)n1 the Potency was “inactive”. In the case of COC(=O)C1=C(c2cccc(OCc3ccccc3)c2)C[C@@H]2CC[C@H]1N2C(=O)NCCCc1ccccc1, the Potency is reported as inconclusive: 29.1 µM [inhibitor, single point]. With COc1ccc(N=Cc2c(O)n(CC3CCCO3)c(=O)[nH]c2=O)cc1 (stereo unspecified) the Potency was “inactive”. For CN1CCC2=C[C@@H](O)[C@@H]3OC(=O)c4cc5c(cc4C3C21)OCO5 (stereo partly specified), the activity change, negative = growth inhibition was inactive: -24.6% [at 9.04 µM]. In the case of C[C@]12CC[C@H]3[C@@H](CCC4=CC(=O)CC[C@@H]43)[C@@H]1CC[C@@H]2O, the Potency is reported as inconclusive: 33.5 µM [inhibitor, single point] and inconclusive: 29.9 µM [inhibitor, single point] and inconclusive: 29.1 µM [inhibitor, single point]. With CC(C)CCn1c(N2CCN(c3cccc(Cl)c3)CC2)nc2c1c(=O)[nH]c(=O)n2C the Potency was inconclusive: 23.1 µM [inhibitor, single point]. With O=C(CN1CCN(c2ccccc2)CC1)Nc1ccccc1C(=O)NCCc1ccccc1 the Potency was inconclusive: 25.9 µM [inhibitor, single point]. For Cc1nc2ccc(Cl)cc2c(=O)n1-c1ccccc1Cl, the Potency was “inactive”. In the case of COc1cccc(-n2cnc3scc(-c4cccs4)c3c2=O)c1, the Potency is reported as inconclusive: 25.9 µM [inhibitor, single point]. In the case of C[C@H]1C[C@H](C)C(=O)[C@@H]([C@H](O)CC2CC(=O)NC(=O)C2)C1, the Potency is reported as active: 0.133 µM. In the case of Cc1c(N=Nc2c(O)n(-c3ccc(Br)cc3)c(=O)[nH]c2=O)c(=O)n(-c2ccccc2)n1C, the Potency is reported as inconclusive: 32.6 µM [inhibitor, single point]. For COc1cc2[nH]c(=O)n(Cc3ccc(C(=O)N4CCN(c5ccc(Cl)cc5)CC4)cc3)c(=O)c2cc1OC, the Potency was active: 3.26 µM. With Cc1ccc(C)c(NC(=O)Cn2nc(C)c3nn(-c4ccc(Cl)cc4)c(C)c3c2=O)c1 the Potency was active: 23.1 µM. For Oc1c(Br)cc(-c2ccccc2)cc1Br, the Potency was “inactive”. For CCCCOP(=O)(OCCCC)C1(C)CC(=O)CC(C)(C)C1 (stereo unspecified), the Potency was inconclusive: 25.9 µM [inhibitor, single point]. With C[N+]1=Cc2cc3c(cc2CC1)OCO3 the Potency was “inactive”. With COC(=O)C1=C(c2cc3ccccc3o2)C[C@@H]2CC[C@H]1N2C(=O)N1CCC(C)CC1 the Potency was active: 4.61 µM. In the case of COCc1ccc(CN2CCCC(C(=O)c3sccc3C)C2)o1 (stereo unspecified), the Potency is reported as inconclusive: 29.1 µM [inhibitor, single point]. In the case of CCOP(=O)(OCC)C(NC(=O)c1ccc(OC)cc1)C(Cl)(Cl)Cl (stereo unspecified), the Potency is reported as “inactive”. In the case of CC(C)C(NC(=O)C(C(C)C)N(C)C)C(=O)N(C)C(C(=O)N1CCCC1C(=O)N1CCCC1C(=O)NCc1ccccc1)C(C)C (stereo unspecified) (ξNMe2Val-V[NMeV]PP-NHBn; configuration not given here), the Potency is reported as active: 0.0326 µM. With COC(=O)C1=C(c2ccccc2)C[C@@H]2CC[C@H]1N2C(=O)N1CCC(C)CC1 the Potency was inconclusive: 20.6 µM [inhibitor, partial curve, poor fit]. In the case of C[C@]12C=CC(=O)C=C1CC[C@@H]1[C@@H]2CC[C@@]2(C)[C@H]1CC[C@]2(C)O, the Potency is reported as inconclusive: 29.9 µM [inhibitor, single point]. In the case of O=c1[nH]c2ccccc2n1C1CCN(C(c2ccnc3ccccc23)c2nnnn2-c2ccc3c(c2)OCCO3)CC1 (stereo unspecified), the Potency is reported as active: 5.17 µM. For Cc1ccc(-n2c(C)cc(/C=C3/C(=O)NC(=O)N(C)C3=O)c2C)cc1, the Potency was “inactive”. In the case of O=C(Cc1ccc(S(=O)(=O)N2CCCC2)s1)N1CCN(c2ccc(F)cc2)CC1, the Potency is reported as inconclusive: 29.1 µM [inhibitor, partial curve]. For C=CCn1c(O)c(C(CC)=NCc2ccc3c(c2)OCO3)c(=O)[nH]c1=O, the Potency was inconclusive: 9.2 µM [inhibitor, partial curve, poor fit]. In the case of Cc1c(C(=O)c2ccc3ccccc3c2)c2cccc3c2n1[C@H](CN1CCOCC1)CO3, the Potency is reported as active: 11.9 µM. With C=CCC1([C@@H](C)CCC)C(=O)NC(=O)NC1=O the Potency was “inactive and inconclusive: 37 µM [inhibitor, single point]”. For C/C(=N\Nc1ccccc1)c1c(O)n(Cc2ccccc2)c(=O)[nH]c1=O, the Potency was active: 14.6 µM. In the case of c1cc2c(cc1N1CCCCC1)C1CC2CCN1 (stereo unspecified), the Potency is reported as inconclusive: 16.4 µM [inhibitor, single point]. In the case of CCC1=Nc2cc(C(=O)N3CCC4(CC3)OCCO4)ccc2Sc2ccc(Br)cc21, the Potency is reported as inconclusive: 29.1 µM [inhibitor, single point]. For Cc1ccc(NC(=O)c2cc(S(=O)(=O)N3CCOCC3)c(Cl)cc2Cl)cc1, the Potency was inconclusive: 20.6 µM [inhibitor, single point]. In the case of Cc1cc(=O)oc2c(C)c(OCC(=O)N3CCN(Cc4ccccc4)CC3)ccc12, the Potency is reported as “inactive”. With COc1cc(C[C@@H](C)N)c(OC)cc1I the Potency was inconclusive: 11.6 µM [inhibitor, partial curve]. In the case of CCN1CC2C3CCC(C)(O3)C2C1 (stereo unspecified), the Potency is reported as “inactive”. For O=C1NC(=O)C(=Cc2c(Cl)cccc2Cl)C(=O)N1, the Potency was active: 11.6 µM. For CC(C)NC[C@H](O)c1ccc(N)c(C#N)c1, the Potency was “inactive”. In the case of O=C1NC(=O)C(=Cc2ccco2)C(=O)N1, the Potency is reported as inconclusive: 20.6 µM [inhibitor, single point]. For c1ccc(C(OCCN2CCN(c3ncccn3)CC2)c2ccccc2)cc1, the Potency was inconclusive: 20.6 µM [inhibitor, partial curve, poor fit]. For CCOC(=O)c1c(C)n(Cc2ccccc2)c2ccc(OCC(O)CN3C(=O)CNC3=O)cc12 (stereo unspecified), the Potency was inconclusive: 20.6 µM [inhibitor, single point]. In the case of Cc1ccc(CCNC(=O)C2CCCN(Cc3nc(-c4cccc(Cl)c4)oc3C)C2)cc1 (stereo unspecified), the Potency is reported as active: 11.6 µM. For CCCNC(=O)N1[C@H]2CC[C@@H]1C(C(=O)OC)=C(c1ccc(F)cc1OCc1ccccc1)C2, the Potency was inconclusive: 23.1 µM [inhibitor, single point]. For C1=CC(Cc2cncs2)c2ccccc21 (stereo unspecified), the Potency was “inactive”. In the case of Cc1c(C(=O)N2CCC3(CC2)OCCO3)oc2ccc(S(=O)(=O)N3CCCCC3)cc12, the Potency is reported as inconclusive: 29.1 µM [inhibitor, single point]. For CCOC(=O)COc1ccc2c(c1)c(C(C)=O)c(C)n2Cc1ccccc1, the Potency was “inactive”. For Oc1ccc2c3c1O[C@H]1c4oc5ccccc5c4C[C@@]4(O)C(C2)N(CC2CC2)CC[C@]314, the Potency was inconclusive: 29.1 µM [inhibitor, single point]. In the case of CCOc1ccc(C2c3c(-c4ccccc4O)n[nH]c3C(=O)N2Cc2ccncc2)cc1 (stereo unspecified), the Potency is reported as active: 7.31 µM. For Cc1cc(OCC(=O)NCc2cccnc2)c2c3c(c(=O)oc2c1)CCCC3, the Potency was inconclusive: 29.1 µM [inhibitor, single point]. With Nc1ncn[nH]1 the Potency was inconclusive: 11.6 µM [inhibitor, partial curve, poor fit]. For O=C(N/N=C/c1c(O)n(CCC2=CCCCC2)c(=O)[nH]c1=O)c1ccccc1, the Potency was inconclusive: 29.1 µM [inhibitor, single point]. With COC(=O)C1=C(c2ccc(Cl)c(C(F)(F)F)c2)C[C@@H]2CC[C@H]1N2C the activity change, negative = growth inhibition was inconclusive: -33.5% [inhibitor].
